Test results taken from FireProtDB (doi:10.1126/science.aai7825).

Details: Escherichia coli (strain K12); pH 7.5; Thermal; Intensity; HEPES 20mM; transition: 2

Q: Which Tm does the source give for “Ribose-phosphate pyrophosphokinase wild type (sequence left out)” here?
A: 43.9 °C
